According to article PMC4336329 (PLoS ONE, 2015):
About 14,000 (4.5%) of roughly 310,000 compounds showed an effect of 50% or more. The effect is printed as a negative number. The list shows a part of the results.

Molecular target: human ether-à-go-go-related gene (hERG) potassium channel (human, UniProt Q12809)
Assay: primary screen, population patch clamp on CHO cells stably expressing hERG
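Note: peak tail current of the secondary pulse compared with the same well before compound.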

human ether-à-go-go-related gene (hERG) potassium channel, sequence (Q12809 whole entry, looked up): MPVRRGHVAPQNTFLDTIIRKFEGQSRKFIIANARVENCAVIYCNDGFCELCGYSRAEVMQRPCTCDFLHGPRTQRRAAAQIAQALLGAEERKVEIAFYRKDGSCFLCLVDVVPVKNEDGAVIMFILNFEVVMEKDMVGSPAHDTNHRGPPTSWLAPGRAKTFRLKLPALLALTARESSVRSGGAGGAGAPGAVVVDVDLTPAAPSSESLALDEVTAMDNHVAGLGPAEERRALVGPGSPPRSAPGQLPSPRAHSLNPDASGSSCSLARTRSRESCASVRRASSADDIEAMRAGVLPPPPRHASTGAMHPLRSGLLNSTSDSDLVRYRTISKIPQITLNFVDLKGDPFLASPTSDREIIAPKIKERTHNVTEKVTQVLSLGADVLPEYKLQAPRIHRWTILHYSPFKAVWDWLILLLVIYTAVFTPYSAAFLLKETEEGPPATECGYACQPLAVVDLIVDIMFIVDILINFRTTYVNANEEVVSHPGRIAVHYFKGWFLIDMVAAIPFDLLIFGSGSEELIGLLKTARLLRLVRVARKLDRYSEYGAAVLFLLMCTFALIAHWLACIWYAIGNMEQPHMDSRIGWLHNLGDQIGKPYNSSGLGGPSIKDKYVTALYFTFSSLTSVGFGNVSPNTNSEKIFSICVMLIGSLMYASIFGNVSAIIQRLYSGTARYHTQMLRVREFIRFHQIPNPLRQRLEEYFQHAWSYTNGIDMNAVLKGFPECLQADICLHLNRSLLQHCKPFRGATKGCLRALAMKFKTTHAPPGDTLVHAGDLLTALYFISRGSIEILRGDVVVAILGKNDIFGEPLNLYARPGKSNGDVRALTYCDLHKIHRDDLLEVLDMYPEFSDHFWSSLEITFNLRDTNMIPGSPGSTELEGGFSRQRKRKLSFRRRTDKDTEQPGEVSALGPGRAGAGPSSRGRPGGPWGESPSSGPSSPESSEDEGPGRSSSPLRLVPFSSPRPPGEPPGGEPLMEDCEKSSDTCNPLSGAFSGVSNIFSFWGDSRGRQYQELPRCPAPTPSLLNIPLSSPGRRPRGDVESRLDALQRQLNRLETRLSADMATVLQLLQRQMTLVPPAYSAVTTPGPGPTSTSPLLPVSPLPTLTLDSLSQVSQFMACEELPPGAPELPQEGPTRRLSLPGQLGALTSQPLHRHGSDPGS

SMILES | hERG current change (%, negative = inhibition) at 10uM [%]
CN1CCN(Cc2cn3cccnc3n2)CC1 | 18.2
COc1cc(/C=N\NC(=O)c2ccc(Cn3nc([N+](=O)[O-])c(Cl)c3C)o2)ccc1O | -70.4
O=C(NC1CCN(S(=O)(=O)c2ccccc2C(F)(F)F)CC1)c1ccco1 | -21.5
CCC(=O)NC(=S)Nc1ccc(NC(=O)c2cccc([N+](=O)[O-])c2C)cc1 | 18.1
CC(CC(=O)N(C)CC(=O)Nc1ccc(N2CCOCC2)cc1)c1ccccc1 (stereo not drawn) | -13.3
CC(=O)NC/C(C)=N\Nc1ccc([N+](=O)[O-])cc1 | -31.9
CCn1nc(C)c(C2C(C#N)=C(N)Oc3n[nH]c(C)c32)c1C (stereo not drawn) | 17.8
COc1ccccc1-n1c(CCn2nc(C)c(Br)c2C)n[nH]c1=S | 12.2
O=C(NNC(=O)c1ccccc1C(=O)O)c1ccc(O)cc1 | 9.6
COc1cc(C(C2C(=O)CC(C)(C)CC2=O)C2C(=O)CC(C)(C)CC2=O)cc(OC)c1OC | 11.4
O=C(c1ccc(CSc2nc3ccncc3[nH]2)cc1)N1CCN(c2cccc(Cl)c2)CC1 | -17.6
Cc1ccc2occ(/C=N/NC(=O)c3ccc(Cl)cc3)c(=O)c2c1 | 16.1
CN1CCN(S(=O)(=O)c2cccc(C(=O)NC3CCCc4ccccc43)c2)CC1 (stereo not drawn) | -7.42
COc1ccc(C(=O)Nc2ccc3c(c2)OCCO3)cc1 | -1.06
CCOC(=O)C1CCCN(C(=S)Nc2cc(C)cc(C)c2)C1 (stereo not drawn) | -10.2
COCCNC(=O)CCn1nc(-c2ccc(Cl)cc2)c2ccccc2c1=O | -28
CN1C(=O)C(Cc2ccc3c(c2)OCO3)C(=O)N(C)C1=O | 6.84
Cc1cccc(C)c1NC(=O)CSc1nc2c([nH]1)c(=O)n(C)c(=O)n2C | 3.49
Cc1ccc(C#CC[N+]2(CC#Cc3ccc(C)cc3)CCCCC2)cc1.[Br-] | -106
Cc1c(Br)c(=O)oc2c(Br)c(O)c(O)cc12 | -2.64
CC12CCC(C/C1=N/NC(=O)COc1ccccc1Cl)C2(C)C (stereo not drawn) | -2.79
O=C(CCCCn1c(=O)c2ccccc2n(CC(=O)Nc2cccc(F)c2)c1=O)NCc1ccco1 | 7.96
CCOc1ccc(N=Cc2c(O)n(C(C)(C)C)c(=O)[nH]c2=O)cc1 | 4.87
COc1ccc2nc(-c3ccc(F)cc3)sc2c1 | 5.25
Cc1ccccc1-c1nc(CN2CCC(C(=O)NC3CCCCC3)CC2)c(C)o1 | -67.7
CCOC(=O)C1C(=O)NC23CCCC2C1c1ccccc1O3 (stereo not drawn) | 10.4
O=C(Nc1cccnc1)c1cccc(S(=O)(=O)Nc2cccc(Cl)c2)c1 | -5.23

SMILES | hERG current change (%, negative = inhibition) at 10uM [%]
Cc1c2c(nc3nnnn13)CCCC2 | 2.25
O=C(CC1NCCNC1=O)OCc1ccccc1 (stereo not drawn) | -19.9
O=C(NC1CCCCC1)C(c1ccccc1)N(Cc1ccc2c(c1)OCO2)C(=O)c1cnsn1 (stereo not drawn) | -22.9
CCOc1ccccc1N1CC(C(=O)NNC(=O)c2ccc(F)cc2)CC1=O (stereo not drawn) | 7.14
Cc1cc2c(cc1S(=O)(=O)CCC(=O)N(C)Cc1ccccc1)OCC(=O)N2 | -35
N#Cc1c(=O)c2nc(NCc3ccccc3)ncc2n2ccccc12 | -15.7
Cc1ccccc1C(=O)N1CCCC(CCC(=O)N2CCN(c3ccccn3)CC2)C1 (stereo not drawn) | 13
COc1ccc(S(=O)(=O)N2CCN(CC(=O)Nc3cccc(F)c3)CC2)cc1 | -54.1
O=C(NC(=S)NCc1ccccc1)C1CCCCC1 | -9.56
COc1ccc2c(=O)c(Oc3ccc(C(=O)O)cc3)c(C(F)(F)F)oc2c1 | -0.624
O=C(C1=C[C@@H](c2csc3ccccc23)C[C@@H](OCc2ccc(CO)cc2)O1)N1CCN(Cc2ccc3c(c2)OCO3)CC1 | 1.69
CCC1=C2CC[C@H]3C(=O)N(C)C(=O)[C@H]3[C@H]2[C@@]2(Cc3ccccc3)C(=NCC(=O)OC)OC(=O)N2C1=O | 2.92
CCN(CC)CCNC(=O)c1ccc(Cl)c(S(=O)(=O)Nc2ccccc2OC)c1 | -24.4
Brc1ccccc1/C=N/N1CCCCC1 | 16.6
COc1ccc(NC2=NCC(Cc3ccc(Br)cc3)S2)cc1 (stereo not drawn) | -21.6
COC(=O)C1=C(c2ccc(-c3ccccc3)c(F)c2)C[C@@H]2CC[C@H]1N2C(=O)N1CCC(C)CC1 | 3.53
CC(C)CNC(=O)COC(=O)c1ccc([N+](=O)[O-])cc1Cl | -10.7
COc1ccc(C)cc1NC(=O)C1CCN(S(=O)(=O)c2ccc3c(c2)C(C)(C)C(=O)N3C)CC1 | 15.5
Cc1cccc(C(C)C)c1NC(=O)c1cc2ccccc2o1 | 0.137
Oc1c(N=NC(=S)Nc2ccccc2F)c2ccccc2n1Cc1ccc(F)cc1 | 18.7
O=C(Cn1cc(C(F)(F)F)ccc1=O)N1CCc2ccccc2C1 | 3.64
CCCCNC(=O)CCn1c(=O)c2ccccc2n(CC(=O)Nc2ccccc2OCC)c1=O | 11.9
O=C(NCC(=O)N(Cc1ccco1)C(C(=O)NC1CCCCC1)c1cccnc1)c1ccco1 (stereo not drawn) | 13
O=S(=O)(NCCSCc1c(Cl)cccc1Cl)c1ccc2c(c1)OCCO2 | -10.5
Cc1ccc(S(=O)(=O)N2CCc3ccccc3C2CN2C(=O)c3ccccc3C2=O)cc1 (stereo not drawn) | -4.25
CC1(C)OC(C)(C)/C(=C/Nc2ccc(O)cc2)C1=O | 1.89
Cl.OCCCCNCc1ccc(OCc2ccc(Cl)cc2)cc1 | -38.8
